Assay results reported in the supplement of paper PMC9151546.
Repeats are few or missing, and single values can be far off.

Legend:
CHO-K1 [1] = experiment: relative survival (nuclei to bead ratio vs DMSO control) (% of vehicle control); higher = more surviving cells
Experimental: (§1)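 Flow-cytometric in vitro micronucleus assay (Litron MicroFlow) in CHO-K1 cells in 96-well plates, 19 concentrations (4.5-200 µM, n=1 per concentration). Without S9, cells were exposed for 24 h and sampled at 48 h. With Aroclor 1254-induced rat liver S9, cells were exposed for 3-4 h and sampled at 27-28 h. Read-outs are %MN and %hypodiploid nuclei relative to nucleated events, and relative survival as the nuclei-to-bead ratio versus the 1% DMSO vehicle control (x100).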

CHO-K1 [2] = experiment: micronucleus frequency (% of nucleated events); higher = more micronuclei (genotoxic)
CHO-K1 [3] = experiment: hypodiploid nuclei frequency (% of nucleated events); higher = more hypodiploid events (aneugenic)
Experimental: as §1
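For hypodiploid nuclei frequency (% of nucleated events) in this document: hypodiploid nuclei gated on a flow cytometer with 488 nm excitation after SYTOX Green staining, cultures at 37 °C, positive controls vinblastine without S9 and cyclophosphamide with S9.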
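For micronucleus frequency (% of nucleated events) in this document: cells lysed with nuclei stained by SYTOX Green, then micronucleus-gated events counted against nucleated events by flow cytometry with 488 nm excitation.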
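For relative survival (nuclei to bead ratio vs DMSO control) in this document: Lysed-cell nuclei stained with SYTOX Green and counted against counting beads by flow cytometry at 488 nm excitation, with vinblastine (no S9) and cyclophosphamide (plus S9) as positive controls.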

ClC1=C(Cl)C2(Cl)C3C(Cl)C=CC3C1(Cl)C2(Cl)Cl (centres undefined) [Heptachlor]
Conditions	hypodiploid nuclei frequency, CHO-K1 [3] [%]	micronucleus frequency, CHO-K1 [2] [%]	relative survival, CHO-K1 [1]
concentration: 4.5 (µM), S9 metabolic activation: with S9, exposure time: 3-4 hours	0.16	1.32	108
concentration: 4.5 (µM), S9 metabolic activation: without S9, exposure time: 24 hours	0.78	3.68	139
concentration: 5.63 (µM), S9 metabolic activation: with S9, exposure time: 3-4 hours	0.36	1.04	111
concentration: 5.63 (µM), S9 metabolic activation: without S9, exposure time: 24 hours	0.94	2.48	129
concentration: 7.04 (µM), S9 metabolic activation: with S9, exposure time: 3-4 hours	0.26	1.48	129
concentration: 7.04 (µM), S9 metabolic activation: without S9, exposure time: 24 hours	0.9	2.02	106
concentration: 8.8 (µM), S9 metabolic activation: with S9, exposure time: 3-4 hours	0.32	1.62	105
concentration: 8.8 (µM), S9 metabolic activation: without S9, exposure time: 24 hours	1.34	2.22	132
concentration: 11 (µM), S9 metabolic activation: with S9, exposure time: 3-4 hours	0.26	2.24	109
concentration: 11 (µM), S9 metabolic activation: without S9, exposure time: 24 hours	0.9	4.64	116
concentration: 13.7 (µM), S9 metabolic activation: with S9, exposure time: 3-4 hours	0.26	2.18	114
concentration: 13.7 (µM), S9 metabolic activation: without S9, exposure time: 24 hours	1.18	2.86	110
concentration: 17.2 (µM), S9 metabolic activation: with S9, exposure time: 3-4 hours	0.32	2.74	118
concentration: 17.2 (µM), S9 metabolic activation: without S9, exposure time: 24 hours	1.14	3.48	109
concentration: 21.5 (µM), S9 metabolic activation: with S9, exposure time: 3-4 hours	0.28	3.64	88.5
concentration: 21.5 (µM), S9 metabolic activation: without S9, exposure time: 24 hours	1.04	3.46	125
concentration: 26.8 (µM), S9 metabolic activation: with S9, exposure time: 3-4 hours	0.98	4.72	50.9
concentration: 26.8 (µM), S9 metabolic activation: without S9, exposure time: 24 hours	1.24	1.68	118
concentration: 33.6 (µM), S9 metabolic activation: with S9, exposure time: 3-4 hours	1.41	14.2	54.9
concentration: 33.6 (µM), S9 metabolic activation: without S9, exposure time: 24 hours	1.38	2.58	118
concentration: 41.9 (µM), S9 metabolic activation: with S9, exposure time: 3-4 hours	1.26	10.7	40.1
concentration: 41.9 (µM), S9 metabolic activation: without S9, exposure time: 24 hours	1.6	3.02	113
concentration: 52.4 (µM), S9 metabolic activation: with S9, exposure time: 3-4 hours	1.25	21.1	41.7
concentration: 52.4 (µM), S9 metabolic activation: without S9, exposure time: 24 hours	1.54	2.5	102
concentration: 65.5 (µM), S9 metabolic activation: with S9, exposure time: 3-4 hours	–	–	28.3
concentration: 65.5 (µM), S9 metabolic activation: without S9, exposure time: 24 hours	2.22	3.3	92.7
concentration: 81.9 (µM), S9 metabolic activation: with S9, exposure time: 3-4 hours	–	–	19.3
concentration: 81.9 (µM), S9 metabolic activation: without S9, exposure time: 24 hours	2.58	5.14	80.5
concentration: 102 (µM), S9 metabolic activation: without S9, exposure time: 24 hours	3.2	6.76	65.2
concentration: 128 (µM), S9 metabolic activation: without S9, exposure time: 24 hours	3.96	9.98	55
concentration: 160 (µM), S9 metabolic activation: without S9, exposure time: 24 hours	–	–	5.02
concentration: 200 (µM), S9 metabolic activation: without S9, exposure time: 24 hours	–	–	0.21

NS(=O)(=O)c1cc2c(cc1Cl)NCNS2(=O)=O [Hydrochlorothiazide]
Conditions	hypodiploid nuclei frequency, CHO-K1 [3] [%]	micronucleus frequency, CHO-K1 [2] [%]	relative survival, CHO-K1 [1]
concentration: 4.5 (µM), S9 metabolic activation: with S9, exposure time: 3-4 hours	0.38	2.54	87
concentration: 4.5 (µM), S9 metabolic activation: without S9, exposure time: 24 hours	1.3	2.56	127
concentration: 5.63 (µM), S9 metabolic activation: with S9, exposure time: 3-4 hours	0.32	2.3	85.5
concentration: 5.63 (µM), S9 metabolic activation: without S9, exposure time: 24 hours	0.98	2.3	129
concentration: 7.04 (µM), S9 metabolic activation: with S9, exposure time: 3-4 hours	0.38	2.42	80.6
concentration: 7.04 (µM), S9 metabolic activation: without S9, exposure time: 24 hours	1.2	2.06	144
concentration: 8.8 (µM), S9 metabolic activation: with S9, exposure time: 3-4 hours	0.48	2.12	91.6
concentration: 8.8 (µM), S9 metabolic activation: without S9, exposure time: 24 hours	1.26	2.1	158
concentration: 11 (µM), S9 metabolic activation: with S9, exposure time: 3-4 hours	0.32	1.82	94.4
concentration: 11 (µM), S9 metabolic activation: without S9, exposure time: 24 hours	1.38	1.9	127
concentration: 13.7 (µM), S9 metabolic activation: with S9, exposure time: 3-4 hours	0.5	1.68	100
concentration: 13.7 (µM), S9 metabolic activation: without S9, exposure time: 24 hours	0.74	2.06	119
concentration: 17.2 (µM), S9 metabolic activation: with S9, exposure time: 3-4 hours	0.28	1.96	86.7
concentration: 17.2 (µM), S9 metabolic activation: without S9, exposure time: 24 hours	1.24	1.58	124
concentration: 21.5 (µM), S9 metabolic activation: with S9, exposure time: 3-4 hours	0.38	2.2	106
concentration: 21.5 (µM), S9 metabolic activation: without S9, exposure time: 24 hours	1.18	1.76	141
concentration: 26.8 (µM), S9 metabolic activation: with S9, exposure time: 3-4 hours	0.42	1.22	93.2
concentration: 26.8 (µM), S9 metabolic activation: without S9, exposure time: 24 hours	1.68	1.86	126
concentration: 33.6 (µM), S9 metabolic activation: with S9, exposure time: 3-4 hours	0.5	1.3	94.2
concentration: 33.6 (µM), S9 metabolic activation: without S9, exposure time: 24 hours	1.8	2.08	134
concentration: 41.9 (µM), S9 metabolic activation: with S9, exposure time: 3-4 hours	0.26	1.22	90.7
concentration: 41.9 (µM), S9 metabolic activation: without S9, exposure time: 24 hours	1.9	1.98	116
concentration: 52.4 (µM), S9 metabolic activation: with S9, exposure time: 3-4 hours	0.22	1.32	74.7
concentration: 52.4 (µM), S9 metabolic activation: without S9, exposure time: 24 hours	1.38	2.08	115
concentration: 65.5 (µM), S9 metabolic activation: with S9, exposure time: 3-4 hours	0.38	1.32	106
concentration: 65.5 (µM), S9 metabolic activation: without S9, exposure time: 24 hours	1.56	1.96	129
concentration: 81.9 (µM), S9 metabolic activation: with S9, exposure time: 3-4 hours	0.24	1.6	112
concentration: 81.9 (µM), S9 metabolic activation: without S9, exposure time: 24 hours	1.76	2.38	127
concentration: 102 (µM), S9 metabolic activation: with S9, exposure time: 3-4 hours	0.22	1.42	105
concentration: 102 (µM), S9 metabolic activation: without S9, exposure time: 24 hours	1.68	2.44	129
concentration: 128 (µM), S9 metabolic activation: with S9, exposure time: 3-4 hours	0.3	1.14	89.1
concentration: 128 (µM), S9 metabolic activation: without S9, exposure time: 24 hours	2.14	1.94	149
concentration: 160 (µM), S9 metabolic activation: with S9, exposure time: 3-4 hours	0.24	1.44	81.7
concentration: 160 (µM), S9 metabolic activation: without S9, exposure time: 24 hours	1.88	2.44	129
concentration: 200 (µM), S9 metabolic activation: with S9, exposure time: 3-4 hours	0.32	1.76	75.7
concentration: 200 (µM), S9 metabolic activation: without S9, exposure time: 24 hours	2.58	2.74	122

NC(=O)NO [Hydroxyurea]
Conditions	hypodiploid nuclei frequency, CHO-K1 [3] [%]	micronucleus frequency, CHO-K1 [2] [%]	relative survival, CHO-K1 [1]
concentration: 4.5 (µM), S9 metabolic activation: with S9, exposure time: 3-4 hours	0.42	1.82	89.5
concentration: 4.5 (µM), S9 metabolic activation: without S9, exposure time: 24 hours	1.44	1.72	106
concentration: 5.63 (µM), S9 metabolic activation: with S9, exposure time: 3-4 hours	0.22	1.36	80.2
concentration: 5.63 (µM), S9 metabolic activation: without S9, exposure time: 24 hours	1.32	1.68	106
concentration: 7.04 (µM), S9 metabolic activation: with S9, exposure time: 3-4 hours	0.36	1.44	117
concentration: 7.04 (µM), S9 metabolic activation: without S9, exposure time: 24 hours	1.24	1.68	132
concentration: 8.8 (µM), S9 metabolic activation: with S9, exposure time: 3-4 hours	0.44	1.44	99.1
concentration: 8.8 (µM), S9 metabolic activation: without S9, exposure time: 24 hours	1.08	2.1	119
concentration: 11 (µM), S9 metabolic activation: with S9, exposure time: 3-4 hours	0.26	1.36	108
concentration: 11 (µM), S9 metabolic activation: without S9, exposure time: 24 hours	0.94	1.88	109
concentration: 13.7 (µM), S9 metabolic activation: with S9, exposure time: 3-4 hours	0.18	2.06	95.2
concentration: 13.7 (µM), S9 metabolic activation: without S9, exposure time: 24 hours	0.98	1.92	134
concentration: 17.2 (µM), S9 metabolic activation: with S9, exposure time: 3-4 hours	0.22	1.58	87
concentration: 17.2 (µM), S9 metabolic activation: without S9, exposure time: 24 hours	1.14	2.76	111
concentration: 21.5 (µM), S9 metabolic activation: with S9, exposure time: 3-4 hours	0.14	1.82	82.6
concentration: 21.5 (µM), S9 metabolic activation: without S9, exposure time: 24 hours	1.38	2.42	96.8
concentration: 26.8 (µM), S9 metabolic activation: with S9, exposure time: 3-4 hours	0.2	1.9	109
concentration: 26.8 (µM), S9 metabolic activation: without S9, exposure time: 24 hours	2.12	1.98	98.5
concentration: 33.6 (µM), S9 metabolic activation: with S9, exposure time: 3-4 hours	0.42	2.34	110
concentration: 33.6 (µM), S9 metabolic activation: without S9, exposure time: 24 hours	1.62	2.28	86.8
concentration: 41.9 (µM), S9 metabolic activation: with S9, exposure time: 3-4 hours	0.48	2.12	105
concentration: 41.9 (µM), S9 metabolic activation: without S9, exposure time: 24 hours	2.86	2.4	82.1
concentration: 52.4 (µM), S9 metabolic activation: with S9, exposure time: 3-4 hours	0.24	1.9	78.5
concentration: 52.4 (µM), S9 metabolic activation: without S9, exposure time: 24 hours	3.5	2.86	81.1
concentration: 65.5 (µM), S9 metabolic activation: with S9, exposure time: 3-4 hours	0.24	1.84	90.9
concentration: 65.5 (µM), S9 metabolic activation: without S9, exposure time: 24 hours	5.18	3.68	84.1
concentration: 81.9 (µM), S9 metabolic activation: with S9, exposure time: 3-4 hours	0.36	2.08	102
concentration: 81.9 (µM), S9 metabolic activation: without S9, exposure time: 24 hours	4.4	3.56	76.7
concentration: 102 (µM), S9 metabolic activation: with S9, exposure time: 3-4 hours	0.28	1.6	97.5
concentration: 102 (µM), S9 metabolic activation: without S9, exposure time: 24 hours	4.74	4.08	69.8
concentration: 128 (µM), S9 metabolic activation: with S9, exposure time: 3-4 hours	0.24	1.92	85.5
concentration: 128 (µM), S9 metabolic activation: without S9, exposure time: 24 hours	3.78	3.96	82.1
concentration: 160 (µM), S9 metabolic activation: with S9, exposure time: 3-4 hours	0.32	1.94	99.1
concentration: 160 (µM), S9 metabolic activation: without S9, exposure time: 24 hours	3.48	4.16	65.4
concentration: 200 (µM), S9 metabolic activation: with S9, exposure time: 3-4 hours	0.36	1.86	84.1
concentration: 200 (µM), S9 metabolic activation: without S9, exposure time: 24 hours	2.72	4.26	58.8
